# The supplement of paper PMC12217912
# The list shows a part of the results. The full chains were built here from the parent and the listed change. Values near 0.05 are background.
# B1: TEV protease; numbered along this chain (parent)
# chain: MGESLFKGPRDYNPISSSICHLTNESDGHTTSLYGIGFGPFIITNKHLFRRNNGTLVVQSLHGVFKVKDTTTLQQHLVDGRDMIIIRMPKDFPPFPQKLKFREPQREERICLVTTNFQTKSMSSMVSDTSCTFPSGDGIFWKHWIQTKDGQCGSPLVSTRDGFIVGIHSASNFTNTNNYFTSVPKNFMELLTNQEAQQWVSGWRLNADSVLWGGHKVFMVKPEEPFQPVKEATQL
# Variants of: B1
# Experiment: raw area under fraction-flipped curve 0-4 h after induction (AUC4h, not background-subtracted), DNA-recorder readout of cleavage of the substrate (dimensionless); higher = more cleavage of the substrate by the protease variant
# Conditions: temperature: 34 °C; time window: 0-4 h after rhamnose induction
# Description: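 In vivo DNA recorder in E. coli TOP10(DE3) ΔrhaA at 34 °C. Each TEVp single-site mutant (parent TEVp 0) is paired with a single-site variant of the 7-mer TEVs (canonical ENLYFQ|S). The substrate sits between flexible linkers in a Bxb1-sfGFP-TEVs-SsrA fusion, so cleavage stabilises Bxb1 and speeds flipping of a recombination array, read by NGS. The value is the raw area under the fraction-flipped curve over 0-4 h after rhamnose induction (AUC4h), with ≥20 reads per time point. It is not background-subtracted; inactive controls average about 0.047.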
# 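Also: Bxb1 expression induced with 0.2% (w/v) L-rhamnose at OD600 near 0.5, cultures sampled hourly, flipped fraction per protease–substrate barcode pair counted by paired-end Illumina sequencing.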
Variant,area with substrate ENLYFCS,area with substrate ENLYFGS,area with substrate ENLYFHS,area with substrate ENLYFIS,area with substrate ENLYFKS,area with substrate ENLYFNS,area with substrate ENLYFPS,area with substrate ENLYFYS,area with substrate ENLYFAS,area with substrate ENLYFDS,area with substrate ENLYFES,area with substrate ENLYFFS,area with substrate ENLYFLS,area with substrate ENLYFRS,area with substrate ENLYFSS,area with substrate ENLYFTS,area with substrate ENLYFVS,area with substrate ENLYFWS,area with substrate ENLYFMS
D208A,0.0509,0.0647,0.0512,0.0679,0.0607,0.0602,0.055,0.0645,–,–,–,–,–,–,–,–,–,–,–
F95E,–,0.0383,0.0274,0.0502,0.0515,0.0512,0.0436,–,0.041,0.0524,0.0552,0.0634,0.0329,0.0491,0.0371,0.0378,0.0461,0.0342,–
W199T,0.0468,–,0.0522,0.0599,0.0515,0.0731,0.0687,0.0789,0.0606,–,0.0409,0.0687,–,0.0589,0.0732,0.062,–,–,–
N53H,0.0646,0.0785,0.0586,0.0525,0.0575,–,0.0555,0.0468,0.0457,–,0.0554,0.0635,0.065,–,0.0491,0.0611,0.059,0.0581,–
F6E,0.026,–,–,–,–,–,0.0874,–,–,0.0644,0.0495,–,–,0.0522,0.0879,–,0.0557,0.0565,–
F6L,0.0561,–,0.0807,0.064,–,0.0645,0.0415,0.0667,–,0.0604,–,–,0.0684,–,–,–,–,0.0598,0.063
G153D,0.0525,–,0.0423,0.0296,0.106,–,0.0459,0.0617,–,0.0499,–,0.0501,0.0595,–,–,0.0341,–,–,0.0458
G153A,0.057,–,–,–,0.066,–,–,–,–,–,–,0.065,–,–,–,–,–,0.0474,0.0546
T174M,–,0.0607,–,0.0604,0.0489,0.0649,0.0601,–,0.06,–,0.0583,–,–,–,–,0.0577,–,0.0433,0.0777
S123L,0.0568,–,–,0.05,–,0.0715,0.0531,0.0511,–,–,0.0597,–,–,–,–,0.0662,–,0.0404,0.0658
Q151V,0.0655,–,0.0625,0.065,0.0735,0.047,0.0502,–,0.063,0.0695,0.0645,0.0688,–,0.0668,–,0.0454,0.0498,0.0499,0.0815
G150S,0.0479,–,–,0.0557,0.0603,–,0.0604,–,0.056,0.0466,0.0578,0.0722,0.0699,–,0.0672,0.0576,0.0601,0.0507,0.0745
E108R,0.049,–,0.021,0.0483,0.0566,0.0594,0.0513,–,0.06,–,0.0403,0.0613,–,0.0563,–,0.0484,0.0582,0.0452,0.0434
L73A,0.0557,–,0.0513,–,–,–,0.0472,0.0519,–,0.0428,–,–,–,0.059,0.0613,0.0552,–,–,–
T72L,–,0.0619,–,0.0503,–,–,0.0612,–,0.06,–,0.0554,0.0568,–,–,–,–,–,0.0526,0.0636
F49N,0.0402,0.0397,0.0551,0.0592,0.0554,0.0464,–,–,–,–,–,–,0.0565,0.0538,–,–,–,0.0573,0.0654

Variant,area with substrate ENLYFCS,area with substrate ENLYFGS,area with substrate ENLYFHS,area with substrate ENLYFIS,area with substrate ENLYFKS,area with substrate ENLYFNS,area with substrate ENLYFPS,area with substrate ENLYFYS,area with substrate ENLYFAS,area with substrate ENLYFDS,area with substrate ENLYFES,area with substrate ENLYFFS,area with substrate ENLYFLS,area with substrate ENLYFRS,area with substrate ENLYFSS,area with substrate ENLYFTS,area with substrate ENLYFVS,area with substrate ENLYFWS,area with substrate ENLYFMS
D69V,0.0668,–,–,0.053,0.0537,0.0633,0.0708,–,–,–,0.0464,0.0611,–,0.0505,–,0.0562,0.0594,0.0514,0.0543
N193H,0.0553,0.06,0.0615,0.0636,–,–,–,–,–,0.0701,0.0572,0.0671,–,–,0.0712,0.0653,0.0439,–,0.0935
E195I,–,–,–,0.0469,–,0.0629,0.0641,–,0.0801,–,–,0.053,–,0.0481,0.0451,0.0689,–,–,0.069
C111Q,0.0623,–,–,0.0476,0.0465,0.0631,0.0443,–,–,–,0.0712,0.0727,0.0523,0.0605,0.0624,0.0708,–,0.0594,–
C111E,0.0679,0.0503,–,0.0562,0.0804,–,0.0891,–,–,0.0647,–,0.0716,0.0209,0.052,–,–,0.0587,–,–
F92M,0.0556,–,0.0644,–,–,–,0.0625,–,–,–,–,0.0819,–,0.104,–,–,0.0541,–,0.104
L61I,0.0581,–,0.0725,0.0536,–,–,–,–,–,0.0792,0.0663,0.0697,–,–,–,–,–,0.0557,0.0731
A232D,0.0846,–,0.0419,0.0512,–,0.0728,0.0611,0.065,0.0407,–,0.0676,0.0839,–,0.0667,0.0585,0.0693,–,–,0.0729
A232I,0.0584,0.0575,0.0259,–,0.0663,–,–,–,–,–,0.0556,–,–,–,0.0563,0.0627,–,–,–
K7T,0.0667,–,–,0.0551,0.0636,0.0498,0.0566,0.0546,–,–,–,0.0643,0.0451,–,0.0399,–,–,–,0.0659
K7R,0.0566,–,–,0.0663,0.0674,–,0.0649,–,–,–,–,–,–,–,–,0.0508,–,0.0608,0.0714
G63E,–,0.0617,0.0489,–,0.0603,0.069,0.0556,–,0.0552,0.0591,0.0749,0.0496,–,0.0438,0.0449,–,0.0195,0.0599,0.0654
G63P,0.0433,0.0727,–,0.0482,0.0509,–,0.0502,0.0423,–,–,0.0447,0.0664,–,–,–,–,0.0785,0.0441,0.049
L191H,0.0484,0.0628,0.0414,0.0508,0.0477,–,0.0608,0.0524,–,0.0567,0.0469,0.0579,0.0547,0.0527,0.0379,0.057,–,0.0649,–
W212Y,0.0585,0.0538,0.0449,0.0405,0.0737,–,0.0578,–,–,–,–,0.0887,0.0655,0.0366,0.0712,–,0.0491,–,0.0946
I110W,0.0424,–,–,0.0504,–,–,0.0421,0.034,–,–,0.0588,–,–,0.0443,0.0353,–,–,–,–
